# From PubChem BioAssay AID588342 (National Center for Advancing Translational Sciences (NCATS), 2011)
# Hit rate of the full screen: of about 360,000 compounds, about 25,000 (6.9%) were called active. The shares of active, inactive and inconclusive entries below differ from those in the screen. Calls come from the whole dose curve; as a rule, active = well fitted inhibition curve with a large enough effect; inconclusive = small, poorly fitted or top-dose-only effect; inactive = flat fitted curve, though single readings scatter. Potencies beside an inconclusive call are fits to weak or partial responses and may not hold up.
# Target: Luciferin 4-monooxygenase (Photinus pyralis) (UniProt P08659)
# UniProt P08659, sequence (P08659 whole entry, looked up): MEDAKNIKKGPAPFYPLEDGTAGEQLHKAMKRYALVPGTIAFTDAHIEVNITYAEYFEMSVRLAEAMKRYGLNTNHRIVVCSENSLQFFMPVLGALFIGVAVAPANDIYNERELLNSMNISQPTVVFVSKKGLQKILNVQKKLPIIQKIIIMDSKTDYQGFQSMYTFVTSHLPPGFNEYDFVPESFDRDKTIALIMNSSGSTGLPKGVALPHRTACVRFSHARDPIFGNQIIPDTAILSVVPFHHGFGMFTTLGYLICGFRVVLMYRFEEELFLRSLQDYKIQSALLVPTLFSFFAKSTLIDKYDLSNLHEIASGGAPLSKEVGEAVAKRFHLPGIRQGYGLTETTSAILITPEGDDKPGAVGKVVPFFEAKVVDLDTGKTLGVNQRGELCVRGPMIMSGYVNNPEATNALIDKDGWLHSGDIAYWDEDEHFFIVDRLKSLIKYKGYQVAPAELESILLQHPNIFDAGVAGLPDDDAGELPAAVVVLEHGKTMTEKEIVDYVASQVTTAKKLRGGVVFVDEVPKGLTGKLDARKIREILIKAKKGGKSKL
# Assay: qHTS profiling assay for firefly luciferase inhibitor/activator using purifed enzyme and Km concentrations of substrates (counterscreen for miR-21 project); note: nearly all actives have a fitted effect of over 55% in size
# Conditions: purified FLuc, luminescence inhibition; series mostly up to 57.5 µM
# How it was run: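 Purified P. pyralis luciferase, 10 nM final, with Km-level 10 uM D-luciferin and 10 uM ATP in 50 mM Tris acetate pH 7.5, 10 mM Mg acetate, 0.01% Tween-20, 0.05% BSA; 6-point qHTS titration about 60 µM downward; luminescence read.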
# Potency is the fitted concentration of half-maximal effect; tags give direction and shape of the fitted curve.
row,SMILES,Potency
1,O=C(Nc1nnc(-c2ccco2)o1)c1ccc(Cl)cc1,"inconclusive: 26.9 µM [inhibitor, partial curve, poor fit]"
2,O=C(N/N=C1/CCS(=O)(=O)c2ccc(F)cc21)c1ccccn1,"inconclusive: 26.9 µM [inhibitor, partial curve, poor fit]"
3,Cc1ccc2nc(-c3cccc(NC(=O)c4cccc5c(Cl)cccc45)c3)oc2c1,active: 2.39 µM
4,Cc1ccc(NCC(=O)N/N=C\c2ccc[nH]2)cc1,"inconclusive: 37.9 µM [inhibitor, partial curve, poor fit]"
5,O=C1CN(C(=O)c2ccc(S(=O)(=O)N3CCCCC3)cc2)C(c2ccc(F)cc2)c2cc(Cl)ccc2N1 (stereo not given),inactive
6,CC1=NN(c2nc(-c3ccc(F)cc3)cs2)C(=O)C1,active: 16.9 µM
7,COc1ccc(C2=C(C)C(=O)N(Cc3ccc(C(=O)Nc4ccc(F)cc4C)cc3)S2(=O)=O)cc1,inactive
8,O=C(N/N=C/c1cccc2ccccc12)c1cccc(F)c1,active: 21.3 µM
9,CCCCNC(=S)Nc1ccc(Cl)cc1,"inconclusive: 15.1 µM [inhibitor, partial curve]"
10,COc1cc(CN(C(=O)c2cccs2)C2CCS(=O)(=O)C2)cc(OC)c1OC (stereo not given),inactive
11,COc1ccc(Nc2nnc(Cc3ccncc3)c3ccccc23)c(OC)c1,"inconclusive: 23.9 µM [inhibitor, partial curve]"
12,Cc1cccc2c(C(=O)N3CCN(c4ccccn4)CC3)cc(-c3cccc(Br)c3)nc12,inactive
13,CCOC(=O)C1CCCN(c2ncnc3c2oc2ccccc23)C1 (stereo not given),"inconclusive: 26.9 µM [inhibitor, single point]"
14,CC(C)c1ccc(CN(C(=O)/C=C/c2ccco2)C2CCS(=O)(=O)C2)cc1 (stereo not given),inactive
15,COc1ccc(/C=N/Nc2ncnc3c2[nH]c2ccccc23)c(OC)c1OC,inactive
16,COc1cc2nc(N3CCN(c4cc(C)ccc4C)CC3)nc(N)c2cc1OC,"inconclusive: 23.9 µM [inhibitor, single point]"
17,N#C/C(=C\c1ccc(OCc2ccc(F)cc2)cc1)C(=O)Nc1cccc(C(=O)O)c1,"inconclusive: 10.7 µM [inhibitor, partial curve]"
18,Cc1nc(-c2ccc(F)cc2)sc1CCNC(=O)c1ccc(OC(C)C)cc1,"inconclusive: 26.9 µM [inhibitor, partial curve]"
19,COc1ccc(NC(=O)NC2CCCCCCC2)c(OC)c1,"inconclusive: 26.9 µM [inhibitor, single point]"
20,COc1ccc(/C(N)=N/OC(=O)c2ccco2)cc1,active: 0.953 µM
